Source: article PMC4615246 (Nucleus, 2015)

What was measured:
Experiment in all cases: LacI/LacO array recruitment in cells
[1] = molecular target: T1, LacI-CFP-Nup107 (human, UniProt P57740 1-925)
T1 sequence: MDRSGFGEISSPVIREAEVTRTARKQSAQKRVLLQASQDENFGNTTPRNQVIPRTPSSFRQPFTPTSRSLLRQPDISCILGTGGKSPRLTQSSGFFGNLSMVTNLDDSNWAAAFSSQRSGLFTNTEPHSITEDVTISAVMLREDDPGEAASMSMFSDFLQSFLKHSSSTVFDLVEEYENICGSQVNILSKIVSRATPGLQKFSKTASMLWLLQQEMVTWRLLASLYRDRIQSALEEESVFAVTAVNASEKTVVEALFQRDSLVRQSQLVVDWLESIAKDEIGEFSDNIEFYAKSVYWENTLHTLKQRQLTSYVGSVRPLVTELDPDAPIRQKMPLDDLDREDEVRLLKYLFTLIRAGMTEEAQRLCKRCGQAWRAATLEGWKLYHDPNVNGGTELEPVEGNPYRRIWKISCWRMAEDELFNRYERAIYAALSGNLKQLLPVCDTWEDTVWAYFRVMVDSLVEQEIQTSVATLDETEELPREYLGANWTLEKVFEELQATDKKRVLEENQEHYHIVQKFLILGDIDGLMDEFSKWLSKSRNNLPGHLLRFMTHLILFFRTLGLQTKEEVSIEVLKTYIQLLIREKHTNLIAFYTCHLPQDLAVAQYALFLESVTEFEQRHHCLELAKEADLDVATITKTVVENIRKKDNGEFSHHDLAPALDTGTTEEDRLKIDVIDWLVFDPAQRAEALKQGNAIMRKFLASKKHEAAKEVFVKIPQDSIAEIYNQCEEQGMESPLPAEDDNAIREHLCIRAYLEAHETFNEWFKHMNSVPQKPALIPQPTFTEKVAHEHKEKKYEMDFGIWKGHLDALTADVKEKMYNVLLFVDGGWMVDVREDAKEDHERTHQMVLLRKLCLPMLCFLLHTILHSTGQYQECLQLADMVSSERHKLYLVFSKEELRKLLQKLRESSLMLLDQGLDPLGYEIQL

[2] = molecular target: T2, LacI-CFP-Nup153 (human, UniProt P49790 1-1475)
T2 sequence: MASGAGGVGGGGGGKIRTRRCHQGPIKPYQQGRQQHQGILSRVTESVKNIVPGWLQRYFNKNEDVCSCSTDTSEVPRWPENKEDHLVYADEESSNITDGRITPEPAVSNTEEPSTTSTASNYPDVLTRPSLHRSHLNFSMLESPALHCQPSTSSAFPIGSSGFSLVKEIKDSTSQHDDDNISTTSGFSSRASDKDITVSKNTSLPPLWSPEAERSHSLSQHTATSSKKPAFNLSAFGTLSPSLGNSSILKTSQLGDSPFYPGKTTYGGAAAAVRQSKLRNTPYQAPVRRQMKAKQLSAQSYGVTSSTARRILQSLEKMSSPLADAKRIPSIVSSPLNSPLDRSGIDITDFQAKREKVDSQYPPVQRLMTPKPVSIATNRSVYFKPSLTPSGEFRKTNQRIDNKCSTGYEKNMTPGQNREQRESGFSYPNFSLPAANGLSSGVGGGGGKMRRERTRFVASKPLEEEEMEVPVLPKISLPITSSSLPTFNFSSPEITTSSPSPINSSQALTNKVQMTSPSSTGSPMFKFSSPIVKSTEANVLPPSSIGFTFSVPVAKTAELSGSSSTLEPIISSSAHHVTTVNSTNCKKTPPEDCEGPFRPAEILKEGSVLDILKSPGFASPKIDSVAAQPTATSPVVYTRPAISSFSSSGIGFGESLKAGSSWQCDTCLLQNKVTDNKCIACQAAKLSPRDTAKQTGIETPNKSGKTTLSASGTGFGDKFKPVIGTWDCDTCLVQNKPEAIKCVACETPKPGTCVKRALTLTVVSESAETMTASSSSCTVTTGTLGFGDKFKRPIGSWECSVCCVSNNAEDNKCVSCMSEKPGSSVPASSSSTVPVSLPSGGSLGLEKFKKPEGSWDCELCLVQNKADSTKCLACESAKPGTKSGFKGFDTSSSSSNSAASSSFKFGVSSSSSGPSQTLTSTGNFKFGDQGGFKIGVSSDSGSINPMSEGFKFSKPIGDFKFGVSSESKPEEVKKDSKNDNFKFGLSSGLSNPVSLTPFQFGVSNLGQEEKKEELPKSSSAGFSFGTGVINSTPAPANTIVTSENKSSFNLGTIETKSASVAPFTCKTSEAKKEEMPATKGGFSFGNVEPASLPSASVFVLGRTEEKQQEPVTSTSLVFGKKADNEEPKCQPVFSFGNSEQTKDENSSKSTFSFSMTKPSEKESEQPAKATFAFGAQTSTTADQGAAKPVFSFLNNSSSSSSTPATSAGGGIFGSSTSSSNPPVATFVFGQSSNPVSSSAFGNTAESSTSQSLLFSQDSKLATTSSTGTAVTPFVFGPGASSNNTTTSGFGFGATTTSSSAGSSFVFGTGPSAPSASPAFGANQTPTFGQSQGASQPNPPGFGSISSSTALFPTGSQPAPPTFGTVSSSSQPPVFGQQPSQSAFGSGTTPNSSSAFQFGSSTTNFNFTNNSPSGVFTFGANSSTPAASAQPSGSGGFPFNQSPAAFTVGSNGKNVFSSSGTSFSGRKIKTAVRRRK

[3] = molecular target: T3, LacI-CFP-Nup58 (human, UniProt Q9BVL2 1-599)
T3 sequence: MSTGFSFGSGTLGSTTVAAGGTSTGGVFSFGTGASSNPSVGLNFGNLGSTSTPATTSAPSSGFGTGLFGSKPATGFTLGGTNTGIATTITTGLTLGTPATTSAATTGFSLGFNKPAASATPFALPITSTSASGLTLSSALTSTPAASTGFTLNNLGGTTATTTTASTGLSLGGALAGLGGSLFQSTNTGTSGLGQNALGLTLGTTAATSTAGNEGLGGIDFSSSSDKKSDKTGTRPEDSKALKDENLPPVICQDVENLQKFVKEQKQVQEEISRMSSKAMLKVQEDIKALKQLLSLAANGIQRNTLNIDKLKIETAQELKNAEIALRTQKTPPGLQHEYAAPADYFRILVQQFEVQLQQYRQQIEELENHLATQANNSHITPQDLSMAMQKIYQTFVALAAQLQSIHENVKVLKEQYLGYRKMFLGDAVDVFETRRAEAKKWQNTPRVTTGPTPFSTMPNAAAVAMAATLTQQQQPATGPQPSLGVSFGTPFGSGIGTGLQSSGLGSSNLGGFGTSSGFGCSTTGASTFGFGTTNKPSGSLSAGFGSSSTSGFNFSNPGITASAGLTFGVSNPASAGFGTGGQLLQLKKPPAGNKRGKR

percent of transfected cells showing colocalization [1]: 26%
percent of transfected cells showing colocalization [2]: 31%
percent of transfected cells showing colocalization [3]: 14%
B1: Pom121 (endogenous) (natural protein)
chain: MSPAAAAAGAGERRRPIASVRDGRGRGCGGPARAVLLGLSLVGLLLYLVPAAAALAWLTVGATAAWWGLSREPRGSRPLSSFVRKARHRRPLSSFVRKARHRRTLFASPLAKSTANGNLLEPRTLLEGPDPAELLLMGSYLGKPGPPQPAAAPEGQDLRDRPGRRPPARPAPRSPPPRSPPPRSPPPSPPTHRAHHVYPSLPTPLLRPSRRPSPRDCGTLPNRFVITPRRRYPIHQAQYSCLGVLPTVCWNGYHKKAVLSPRNSR[about 450 residues not shown]KQSFLFGTQNTSPSSPAAPAASSAPPMFKPIFTAPPKSEKEGPTPPGPSVTATAPSSSSLPTTTSTTAPTFQPVFSSMGPPASVPLPAPFFKQTTTPATAPTTTAPLFTGLASATSAVAPITSASPSTDSASKPAFGFGINSVSSSSVSTTTSTATAASQPFLFGAPQASAASFTPAMGSIFQFGKPPALPTTTTVTTFSQSLHTAVPTATSSSAADFSGFGSTLATSAPATSSQPTLTFSNTSTPTFNIPFGSSAKSPLPSYPGANPQPAFGAAEGQPPGAAKPALAPSFGSSFTFGNSAAPAAAPTPAPPSMIKVVPAYVPTPIHPIFGGATHSAFGLKATASAFGAPASSQPAFGGSTAVFFGAATSSGFGATTQTASSGSSSSVFGSTTPSPFTFGGSAAPAGSGSFGINVATPGSSTTTGAFSFGAGQSGSTATSTPFAGGLGQNALGTTGQSTPFAFNVSSTTESKPVFGGTATPTFGLNTPAPGVGTSGSSLSFGASSAPAQGFVGVAPFGSAALSFSIGAGSKTPGARQRLQARRQHTRKK
